# According to PubChem BioAssay AID1508642 (National Center for Advancing Translational Sciences (NCATS), 2021):
# About 200 (0.47%) of roughly 43,000 compounds were called active. Inconclusive results (about 12%) are left out. Calls come from the whole dose curve; as a rule, active = well fitted cell-killing curve with a large enough effect; inconclusive = small, poorly fitted or top-dose-only effect, or effect the other way; inactive = flat fitted curve, though single readings scatter. This is one part of the list.
# Assay: Cell viability qHTS assay in S16 Pmp22-F2sN cells; note: nearly all actives have a fitted effect of over 65% in size
# Conditions: S16 Pmp22-F2sN Schwann cells (luciferase reporters placed in the Pmp22 gene) viability, CellTiter-Glo, 24 h; series mostly up to 57.5 µM; activity change, negative = cytotoxicity: at the top concentration
# How it was run: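 Luminescence from CellTiter-Glo, read by CCD camera after a 15 min room-temperature incubation, served as the viability signal. Reporter Schwann cells (S16 Pmp22-F2sN) had been treated with pin-transferred compounds for 24 h at 37C.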
# % is set by controls: 0 for no effect and ±100 for the full control effect.
row,SMILES,"activity change, negative = cytotoxicity"
1,Cc1ccc(NS(=O)(=O)c2ccc3c(c2)CCN3C(=O)C2CC2)c(C)c1,inactive: -4.21%
2,Cc1ccc(NC(=O)c2ccc3c(O)c(S(=O)(=O)c4ccc(Cl)cc4)c(=O)[nH]c3c2)cc1,inactive: -0.81%
3,CCOC(=O)C1CCCN(C(=O)Cn2ncc3c(C)n(Cc4ccc(Cl)cc4)c(C)c3c2=O)C1 (centres undefined),inactive: -15.7%
4,C=C(C)Cn1c(SCC(=O)c2ccc(Br)cc2)nc2sc3c(c2c1=O)CCCC3,inactive: 0.302%
5,CC1=C(C#N)C(NC(=O)c2ccccc2)(C(F)(F)F)C(=O)N1 (centres undefined),inactive: -0.0536%
6,CCC(=O)N1CCc2cc(CNC(=O)Nc3cc(OC)c(OC)c(OC)c3)ccc21,inactive: 3.1%
7,CCN(CC)C(=O)C1=C(C)Nc2nc3ccccc3n2C1c1ccccc1F (centres undefined),inactive: -0.57%
8,CCOC(=O)c1cc2c(=O)n3ccccc3nc2n(CCCOC)c1=NC(=O)c1c(-c2c(F)cccc2Cl)noc1C,inactive: -8.83%
9,COc1ccccc1CNC(=O)Cc1c(C)c2cc3c(C)coc3c(C)c2oc1=O,inactive: 1.47%
10,CCOc1ccc(CCNC(=O)C2Cc3ccccc3N2C(=O)CC)cc1 (centres undefined),inactive: 9.92%
11,Cc1ccccc1Cn1c(=O)n(Cc2ccco2)c(=O)c2sc3ccccc3c21,inactive: 21.8%
12,COc1ccc(CNC(=O)CC(C)CC2=NS(=O)(=O)c3ccccc3N2)cc1 (centres undefined),inactive: -1.62%
13,CCOc1ccc(S(=O)(=O)Nc2ccc3c(c2)CCCN3C(=O)c2cccs2)cc1,inactive: 0.183%
14,O=C(Cc1ccc(NC(=O)N2CCCCc3ccccc32)cc1)NCc1cccc(Br)c1,inactive: 4.42%
15,COc1ccc(Cl)cc1NC(=O)Cn1c(=O)n(-c2ccc(C)cc2)c(=O)c2ccc(C(=O)NCc3ccccc3Cl)cc21,inactive: 12.1%
16,COc1cc(NC(=O)CCNC(=O)Cn2ccc3ccccc3c2=O)cc(OC)c1OC,inactive: 3.32%
17,COc1ccc(CCNC(=O)c2cc(Nc3ccccc3)nc3ccccc23)cc1OC,inactive: -2.79%
18,O=C1CCc2cc(S(=O)(=O)NCc3ccccc3)cc3c2N1CC3,inactive: 7.78%
19,CCn1c(C(=O)Nc2ccccc2C(=O)OC)cc2sc(Cl)cc21,inactive: -0.0271%
20,COC(=O)c1c(NC(=O)CCCOc2ccc(C)cc2)sc2c1CCCC2,inactive: 1.05%
21,Cc1ccccc1Cn1c(SCc2ccc(C(=O)N3CCCCC3)cc2)nc2ccncc21,inactive: -0.953%
22,O=S(=O)(NCCc1csc(-c2cccc(F)c2)n1)c1cc(F)ccc1F,inactive: -27.1%
23,CCCOc1ccc(OC(=O)c2ccc(-c3ccc(CCC)cn3)cc2)cc1,inactive: -27.7%
24,O=C(CCCCn1c(=O)c2ccccc2n(Cc2ccc(F)cc2Cl)c1=O)NCCc1ccc(Cl)cc1,inactive: 14.1%
25,COC(=O)c1ccccc1NC(=O)CCCn1c(C)c2cnn(-c3ccccc3)c(=O)c2c1C,inactive: 9.69%

row,SMILES,"activity change, negative = cytotoxicity"
1,Cc1nc2c(c(C)nn2-c2ccccc2)c(C)c1CCC(=O)Nc1ccccc1,inactive: 3.39%
2,O=C(Nc1ccc(S(=O)(=O)N(Cc2ccccc2)c2ccccc2)cc1)c1ccccc1F,inactive: 0.424%
3,Cc1ccc(NC(=O)Cn2c(=O)n(Cc3ccc(F)cc3)c(=O)c3cccnc32)cc1C,inactive: -0.947%
4,COc1ccc(-c2nn3c(-c4ccccc4)nnc3c3ccccc23)cc1,inactive: -0.355%
5,CC(=O)c1ccc(NC(=O)C2CCN(S(=O)(=O)c3c(C)noc3/C=C/c3ccc(C)cc3)CC2)cc1,inactive: -1.21%
6,COc1ccc(CNC(=O)CN2C(=O)COc3ccccc32)c(OC)c1,inactive: 29.4%
7,Cc1ccc2nc(NC(=O)CSc3cc(C)[nH]c(=O)n3)sc2c1,inactive: -9.04%
8,Oc1ccccc1-c1nc2cnccn2c1Nc1ccc(Cl)cc1,inactive: -18%
9,CCOc1ccc(CNC(=O)CCCn2c(=O)c3cccn3c3cccnc32)cc1,inactive: -2.42%
10,Cc1cc(C(=O)NCCc2ccc(Cl)cc2)c2c(C)nn(-c3ccccc3)c2n1,inactive: 14.4%
11,COc1cc(CNC(=O)c2ccc(NC(=O)N3CCCCc4ccccc43)cc2)cc(OC)c1OC,inactive: -7.64%
12,Cc1ccc2oc(=O)c3cnn(CC(=O)N4CCN(c5cccc(Cl)c5)CC4)c3c2c1,inactive: 19.7%
13,CCOc1ccc(OCC)c(NC(=O)CN(C)S(=O)(=O)c2ccc3[nH]c(=O)oc3c2)c1,inactive: 4.2%
14,CC(=O)c1cccc(NC(=O)CCn2nc(C)c(S(=O)(=O)N3CCCCC3)c2C)c1,inactive: 2.82%
15,O=C(NCCc1ccc(Cl)cc1)c1cnc2sc(N3CCCC3)nn2c1=O,inactive: -1.76%
16,CCc1ccccc1NC(=O)C1CCCN(S(=O)(=O)c2ccc3[nH]c(=O)ccc3c2)C1 (centres undefined),inactive: -4.8%
17,Cc1ccc(OCC(=O)NCC(=O)OCc2cc(=O)n3nc(CC(C)C)sc3n2)cc1,inactive: 3.14%
18,COc1ccc(N2CCN(C(=O)CSc3nc(-c4ccccc4)no3)CC2)cc1,inactive: 12.2%
19,COc1ccc(OC)c(CCNC(=O)CCCn2c(=O)c3cccn3c3cccnc32)c1,inactive: 27.8%
20,O=C(NCc1ccccc1)c1ccc(CS(=O)(=O)c2c(Cl)cccc2Cl)o1,inactive: 21.4%
21,COc1ccc(-c2n[nH]c3c2C(c2ccccn2)N(C)C3=O)cc1 (centres undefined),inactive: 7.03%
22,COc1ccc(-n2nc3c(N4CCC(C(=O)NC5CCCCC5)CC4)nnc(C)c3c2C)cc1,inactive: 3.68%
23,O=c1c2oc3ccccc3c2n(Cc2ccccc2F)c(=O)n1Cc1ccc2c(c1)OCO2,inactive: 22.7%
24,CC1=C(c2ccc(C)c(C)c2)S(=O)(=O)N=C1N1CCC(C(=O)NCc2ccc(N(C)C)cc2)CC1,inactive: -11.3%
